Test results reported in PubChem BioAssay AID1865 (National Center for Advancing Translational Sciences (NCATS), 2009).
Out of some 280,000 compounds screened, about 540 (0.19%) were called active. The shares of active, inactive and inconclusive entries below differ from those in the screen. Calls come from the whole dose curve; as a rule, active = well fitted activation curve with a large enough effect; inconclusive = small, poorly fitted or top-dose-only effect; inactive = flat fitted curve, though single readings scatter. Potencies of inconclusive entries are doubtful fits and often do not repeat.

Assay: Quantitative High-Throughput Screen for Regulators of Epigenetic Control; note: nearly all actives have a fitted effect of over 60% in size
Settings: murine LDR cells, GFP reporter derepression, 30 h; series mostly up to 53.9 µM
Text: NIH Molecular Libraries Screening Centers Network [MLPCN] NIH Chemical Genomics Center [NCGC] MLSCN Grant: 1 X01 MH079860-01 Assay Provider: Elisabeth D. Martinez, University of Texas SW Medical Center NCGC Assay Overview: The Locus Derepression (LDR) assay detects the derepression or induction of a GFP reporter that is stably integrated in a genomic region of murine cells that is presumably silenced. Transcription of the GFP reporter is controlled by a CMV promoter, which normally is constitutively active. However, this cell line, termed LDR, was selected for lack of constitutive production of GFP. GFP production can be induced by incubating the cells with histone deacetylase or DNA methyltransferase inhibitors (Martinez et al., 2006). Compounds that derepress or induce this reporter locus are identified by enumerating GFP positive cells using a laser-scanning microplate cytometer (Auld et al., 2006). This assay was screened against the MLSMR earlier (AID 597; (Johnson et al., 2008) and has been rescreened here against the expanded collection.
NCGC Assay Protocol Summary: Three hundred LDR cells in 5 uL per well were dispensed into black, clear-bottom 1536-well plates. Twenty-three nL compound was transferred to the assay plate and cells were incubated 30 hours at 37 C. Medium was removed, cells were washed two times with PBS, and GFP-positive cells were enumerated as fluorescent objects between the sizes of 20 to 120 um width and depth using an Acumen Explorer. References Auld, DS, Johnson, RL, Zhang, YQ, Veith, H, Jadhav, A, Yasgar, A, Simeonov, A, Zheng, W, Martinez, ED, Westwick, JK, Austin, CP, Inglese, J (2006). Fluorescent protein-based cellular assays analyzed by laser-scanning microplate cytometry in 1536-well plate format. Methods Enzymol 414: 566-89. Johnson, RL, Huang, W, Jadhav, A, Austin, CP, Inglese, J, Martinez, ED (2008). A quantitative high-throughput screen identifies potential epigenetic modulators of gene expression. Anal Biochem 375: 237-48. Martinez, ED, Dull, AB, Beutler, JA, Hager, GL (2006). High-content fluorescence-based screening for epigenetic modulators. Methods Enzymol 414: 21-36.
Potency is the fitted concentration of half-maximal effect; tags give direction and shape of the fitted curve.

Structure (SMILES) | Potency
O=C(NNc1ccccc1Br)C(O)(c1cccc(C(F)(F)F)c1)c1cccc(C(F)(F)F)c1 | inconclusive: 22.4 µM [activator, single point]
COc1ccc(C2=NN(C(=O)COc3ncnc4ccccc34)C(c3ccco3)C2)cc1 (stereo not given) | inconclusive: 17.8 µM [activator, single point]
CC(=O)N1CCc2c(sc(NC(=O)C3CC3)c2-c2nc3ccccc3s2)C1 | inconclusive: 35.5 µM [activator, single point]
CNc1nc(N/N=C/c2cc3c(cc2[N+](=O)[O-])OCO3)nc(Nc2ccccc2)n1 | inconclusive: 35.5 µM [activator, single point]
Oc1ccc(O)c(Cc2nc3ccccc3s2)c1 | inconclusive: 11.2 µM [activator, partial curve]
Cc1ccc2nc(-c3ccc(SCC(=O)N4CCc5ccccc54)nc3)[nH]c2c1 | inactive
COc1ccccc1CNC(=O)CCCn1c(=O)c2ccccc2n(CC(=O)Nc2ccc(C)cc2Cl)c1=O | inconclusive: 15.8 µM [activator, single point]
COc1ccc(C(=O)N2CCCCC2CCN2CCOCC2)cc1 (stereo not given) | inactive
COc1ccc(-c2cc(C(F)(F)F)nc(S(C)(=O)=O)n2)cc1OC | inconclusive: 2.82 µM [activator, single point]
NC(=S)NN=C1C2CC3CC(C2)CC1C3 | inconclusive: 25.1 µM [activator, single point]
Cc1ccccc1/[N+]([O-])=C/c1ccncc1 | inconclusive: 25.1 µM [activator, single point]
CCN1C(=O)C(NC(C)=O)c2cc(Br)ccc21 (stereo not given) | inactive
O=C(CN1C(=O)COc2ccc(S(=O)(=O)N3CCCC3)cc21)NC1CC1 | inconclusive: 7.94 µM [activator, partial curve, poor fit]
Cc1ccc(NC(=S)NCCc2ccccc2)nc1 | inactive
CC(C)SC1=NC(C)(C)C=C(/C=C/c2ccc(Cl)cc2Cl)N1 | inconclusive: 31.6 µM [activator, single point]
Oc1cccc(/C=N/N(Cc2ccccc2)c2ccccc2)c1 | inconclusive: 20 µM [activator, single point]
c1ccc2c(c1)ncc1cccn12 | inactive
COc1cc(CNCCc2ccccc2)cc(Br)c1OCC(=O)Nc1ccccc1C | inactive
O=C(/C=C/Sc1ncn[nH]1)c1ccc(Cl)cc1 | inconclusive: 5.01 µM [activator, single point]
COc1ccc(-c2cc3ccc(O)c(CN4CCN(CCO)CC4)c3oc2=O)cc1OC | inactive
